{
  "source": "paper PMC3179504",
  "about": "(PLoS ONE, 2011)",
  "tested_on": "PAK1 (ser199/204)/PAK2 (ser192/197)",
  "experiment": "PAK phosphorylation, Western blot, U373MG cells",
  "conditions": "1 hour, SP 100 nM, 1 min",
  "procedure": "Cells were lysed in lithium dodecyl sulfate (LDS) sample buffer (Invitrogen, Carlsbad, CA), and lysed using a sonic dismembrator model 100 (Fisher Scientific, Hampton, NH). Cell extracts were subjected to LDS polyacrylamide gel electrophoresis and transferred to polyvinylidene difluoride membranes. After blocking with 5% nonfat dry milk in 0.1% Tween 20/TBS, membranes were incubated with the primary antibody. […] The following non phospho-specific antibodies were used: Beta-Actin and PAK1/2/3 (Cell Signaling Technology, Beverly, MA). Secondary antibodies conjugated to horseradish peroxidase were either anti-rabbit (Biorad, Hercules, CA), or anti-mouse (Cell Signaling Technology, Beverly, MA). Bands were visualized by enhanced chemiluminescence using SuperSignal® West Pico Chemiluminescent Substrate (Thermo Scientific, Rockford, IL) on a VersaDoc Imager (BioRad, Hercules, CA).",
  "data": [
    {"smiles": "Oc1ccc2ccccc2c1SSc1c(O)ccc2ccccc12", "note": "[IPA3, 1, 1′-Dithiodi-2-naphthtol]", "values": [
      {"measurement": "effect of IPA3 on SP-induced PAK phosphorylation", "setting": "IPA3 20 µM", "value": "inhibition of SP-induced PAK phosphorylation"}
    ]},
    {"smiles": "C[C@@H](O[C@H]1OCCN(Cc2n[nH]c(=O)[nH]2)[C@H]1c1ccc(F)cc1)c1cc(C(F)(F)F)cc(C(F)(F)F)c1", "note": "[aprepitant]", "values": [
      {"measurement": "effect of aprepitant on SP-induced PAK phosphorylation", "setting": "aprepitant 1 µM", "value": "complete block of SP-induced PAK phosphorylation"}
    ]}
  ]
}
